Data: PMC10424150
Like-named read-outs stand apart in the source and are kept apart here. Results are given in words; binding and its absence hold for the method and conditions named. In cells and extracts the contact can be indirect. Some binding calls cover weakened binding; strength is not graded here. For some of these results: Sequences can lack the tags named with a protein.

Protein sequences, listed by entry. Tags and fused reporters are not part of them.
UniProt Q8NHY2: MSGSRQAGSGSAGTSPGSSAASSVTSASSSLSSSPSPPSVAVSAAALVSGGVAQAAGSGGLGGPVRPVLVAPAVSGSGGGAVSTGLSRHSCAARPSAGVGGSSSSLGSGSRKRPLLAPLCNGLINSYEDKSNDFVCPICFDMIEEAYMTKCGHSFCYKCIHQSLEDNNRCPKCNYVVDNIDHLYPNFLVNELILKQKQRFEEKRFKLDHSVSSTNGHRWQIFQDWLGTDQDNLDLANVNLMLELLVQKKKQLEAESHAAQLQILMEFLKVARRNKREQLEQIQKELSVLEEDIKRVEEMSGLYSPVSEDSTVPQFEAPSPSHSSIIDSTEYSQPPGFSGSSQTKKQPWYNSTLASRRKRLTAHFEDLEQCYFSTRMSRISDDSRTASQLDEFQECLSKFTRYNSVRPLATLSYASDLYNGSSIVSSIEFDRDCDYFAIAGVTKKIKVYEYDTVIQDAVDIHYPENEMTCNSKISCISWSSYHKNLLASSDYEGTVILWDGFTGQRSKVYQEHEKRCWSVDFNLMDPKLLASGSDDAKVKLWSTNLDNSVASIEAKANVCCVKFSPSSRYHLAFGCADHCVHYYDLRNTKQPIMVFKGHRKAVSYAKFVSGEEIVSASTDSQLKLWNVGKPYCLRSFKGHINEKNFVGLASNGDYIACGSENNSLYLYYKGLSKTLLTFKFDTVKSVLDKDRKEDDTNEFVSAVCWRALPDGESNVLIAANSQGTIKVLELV
UniProt Q13164: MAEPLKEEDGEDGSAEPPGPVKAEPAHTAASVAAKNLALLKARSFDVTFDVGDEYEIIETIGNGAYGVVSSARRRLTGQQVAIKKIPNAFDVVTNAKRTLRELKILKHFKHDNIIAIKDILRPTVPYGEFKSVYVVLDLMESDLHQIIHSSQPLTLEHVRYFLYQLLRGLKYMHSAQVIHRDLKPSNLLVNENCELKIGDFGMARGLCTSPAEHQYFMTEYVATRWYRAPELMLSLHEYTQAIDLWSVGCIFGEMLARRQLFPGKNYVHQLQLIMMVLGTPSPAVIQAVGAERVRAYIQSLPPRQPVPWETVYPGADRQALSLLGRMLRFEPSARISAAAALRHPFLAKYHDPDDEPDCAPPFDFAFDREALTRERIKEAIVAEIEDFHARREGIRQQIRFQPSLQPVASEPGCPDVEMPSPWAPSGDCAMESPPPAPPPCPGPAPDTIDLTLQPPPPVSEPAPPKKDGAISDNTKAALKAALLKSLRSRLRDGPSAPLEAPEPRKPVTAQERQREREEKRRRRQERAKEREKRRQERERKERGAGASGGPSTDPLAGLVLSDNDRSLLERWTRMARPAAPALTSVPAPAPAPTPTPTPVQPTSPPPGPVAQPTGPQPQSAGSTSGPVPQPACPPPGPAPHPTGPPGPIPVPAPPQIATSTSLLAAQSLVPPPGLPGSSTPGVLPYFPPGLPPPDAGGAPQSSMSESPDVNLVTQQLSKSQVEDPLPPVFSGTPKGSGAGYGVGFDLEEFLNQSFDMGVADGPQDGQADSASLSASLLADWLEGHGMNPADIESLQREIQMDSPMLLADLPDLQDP
UniProt Q7KZI7: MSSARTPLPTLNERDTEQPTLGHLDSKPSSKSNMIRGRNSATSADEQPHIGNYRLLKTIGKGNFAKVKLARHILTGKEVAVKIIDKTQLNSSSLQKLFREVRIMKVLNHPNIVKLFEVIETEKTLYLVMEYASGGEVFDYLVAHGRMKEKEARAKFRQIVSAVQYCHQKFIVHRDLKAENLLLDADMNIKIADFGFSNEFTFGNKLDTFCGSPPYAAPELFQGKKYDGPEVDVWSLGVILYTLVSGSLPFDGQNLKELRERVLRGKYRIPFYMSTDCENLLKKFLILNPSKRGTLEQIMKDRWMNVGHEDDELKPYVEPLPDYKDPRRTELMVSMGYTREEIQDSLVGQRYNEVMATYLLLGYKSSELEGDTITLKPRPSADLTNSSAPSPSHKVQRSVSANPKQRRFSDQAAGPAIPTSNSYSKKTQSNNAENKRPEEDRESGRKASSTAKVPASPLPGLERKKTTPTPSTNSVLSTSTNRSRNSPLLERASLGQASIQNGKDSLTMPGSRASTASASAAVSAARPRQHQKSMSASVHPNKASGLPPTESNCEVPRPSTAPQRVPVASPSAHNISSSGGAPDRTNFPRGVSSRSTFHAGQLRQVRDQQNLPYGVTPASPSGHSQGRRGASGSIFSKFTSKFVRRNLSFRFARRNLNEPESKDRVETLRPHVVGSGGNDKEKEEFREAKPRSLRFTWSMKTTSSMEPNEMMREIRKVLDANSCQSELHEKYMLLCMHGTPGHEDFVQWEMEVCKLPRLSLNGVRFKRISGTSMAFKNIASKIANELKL

T1: FLAG-TRAF7 N520S, meningioma mutant of full-length human TRAF7 (human) (UniProt Q6Q0C0)
T1 sequence: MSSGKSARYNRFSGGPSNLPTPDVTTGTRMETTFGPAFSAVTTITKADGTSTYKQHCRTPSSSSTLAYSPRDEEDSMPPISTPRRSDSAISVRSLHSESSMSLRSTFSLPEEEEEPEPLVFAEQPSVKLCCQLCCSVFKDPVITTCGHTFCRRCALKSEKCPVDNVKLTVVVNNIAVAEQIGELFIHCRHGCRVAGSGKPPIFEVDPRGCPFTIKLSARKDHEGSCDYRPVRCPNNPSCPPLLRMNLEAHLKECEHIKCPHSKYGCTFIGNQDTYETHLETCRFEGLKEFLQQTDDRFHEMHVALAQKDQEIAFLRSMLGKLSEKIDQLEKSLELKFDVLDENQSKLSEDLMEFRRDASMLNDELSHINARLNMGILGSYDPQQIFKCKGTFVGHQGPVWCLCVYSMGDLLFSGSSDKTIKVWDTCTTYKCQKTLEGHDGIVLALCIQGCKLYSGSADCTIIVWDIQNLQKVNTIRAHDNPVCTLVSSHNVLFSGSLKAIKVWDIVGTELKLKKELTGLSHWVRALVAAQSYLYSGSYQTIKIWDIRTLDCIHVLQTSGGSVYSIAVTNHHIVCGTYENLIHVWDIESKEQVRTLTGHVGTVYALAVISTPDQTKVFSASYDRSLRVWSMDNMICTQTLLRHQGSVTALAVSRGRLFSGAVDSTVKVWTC

T2: FLAG-TRAF7, full-length human TRAF7 (human) (UniProt Q6Q0C0)
T2 sequence: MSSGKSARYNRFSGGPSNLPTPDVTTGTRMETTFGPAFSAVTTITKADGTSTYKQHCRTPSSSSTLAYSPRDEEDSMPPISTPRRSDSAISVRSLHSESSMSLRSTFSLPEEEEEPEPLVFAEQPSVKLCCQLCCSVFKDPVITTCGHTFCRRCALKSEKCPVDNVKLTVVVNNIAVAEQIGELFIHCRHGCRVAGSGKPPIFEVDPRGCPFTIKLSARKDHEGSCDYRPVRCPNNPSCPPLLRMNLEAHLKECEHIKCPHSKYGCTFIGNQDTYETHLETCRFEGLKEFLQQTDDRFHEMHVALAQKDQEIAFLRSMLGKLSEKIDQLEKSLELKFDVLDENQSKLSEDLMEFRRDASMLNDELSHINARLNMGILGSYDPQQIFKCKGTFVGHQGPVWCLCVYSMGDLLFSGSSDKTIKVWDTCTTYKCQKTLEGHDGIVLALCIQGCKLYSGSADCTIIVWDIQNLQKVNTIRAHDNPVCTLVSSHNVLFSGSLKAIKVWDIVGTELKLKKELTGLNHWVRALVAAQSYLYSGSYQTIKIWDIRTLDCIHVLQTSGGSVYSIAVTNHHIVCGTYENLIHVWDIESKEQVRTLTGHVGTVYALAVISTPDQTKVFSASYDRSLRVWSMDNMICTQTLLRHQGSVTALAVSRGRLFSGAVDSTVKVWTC

T3: FLAG-TRAF7(375-670), C-terminal WD40 domain (human) (UniProt Q6Q0C0)
T3 sequence: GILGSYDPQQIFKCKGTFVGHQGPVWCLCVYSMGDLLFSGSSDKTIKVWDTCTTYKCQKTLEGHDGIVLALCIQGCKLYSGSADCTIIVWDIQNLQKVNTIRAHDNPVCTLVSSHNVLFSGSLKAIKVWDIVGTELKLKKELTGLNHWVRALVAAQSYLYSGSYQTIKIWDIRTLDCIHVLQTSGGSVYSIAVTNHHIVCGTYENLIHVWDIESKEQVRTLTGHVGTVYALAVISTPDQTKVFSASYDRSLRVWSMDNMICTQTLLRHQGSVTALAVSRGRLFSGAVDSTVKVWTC

T4: FLAG-TRAF7(121-292) (human) (UniProt Q6Q0C0)
T4 sequence: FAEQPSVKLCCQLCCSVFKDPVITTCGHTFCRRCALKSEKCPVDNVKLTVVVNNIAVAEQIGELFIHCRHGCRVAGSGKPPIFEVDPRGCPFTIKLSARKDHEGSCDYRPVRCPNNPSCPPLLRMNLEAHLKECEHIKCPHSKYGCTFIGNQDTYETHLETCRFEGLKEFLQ

B1: mitogen-activated protein kinase kinase kinase 3 (MEKK3), endogenous (protein, UniProt Q99759 1-626)
chain: MDEQEALNSIMNDLVALQMNRRHRMPGYETMKNKDTGHSNRQSDVRIKFEHNGERRIIAFSRPVKYEDVEHKVTTVFGQPLDLHYMNNELSILLKNQDDLDKAIDILDRSSSMKSLRILLLSQDRNHNSSSPHSGVSRQVRIKASQSAGDINTIYQPPEPRSRHLSVSSQNPGRSSPPPGYVPERQQHIARQGSYTSINSEGEFIPETSEQCMLDPLSSAENSLSGSCQSLDRSADSPSFRKSRMSRAQSFPDNRQEYSDRETQLYDKGVKGGTYPRRYHVSVHHKDYSDGRRTFPRIRRHQGNLFTLVPSSRSLSTNGENMGLAVQYLDPRGRLRSADSENALSVQERNVPTKSPSAPINWRRGKLLGQGAFGRVYLCYDVDTGRELASKQVQFDPDSPETSKEVSALECEIQLLKNLQHERIVQYYGCLRDRAEKTLTIFMEYMPGGSVKDQLKAYGALTESVTRKYTRQILEGMSYLHSNMIVHRDIKGANILRDSAGNVKLGDFGASKRLQTICMSGTGMRSVTGTPYWMSPEVISGEGYGRKADVWSLGCTVVEMLTEKPPWAEYEAMAAIFKIATQPTNPQLPSHISEHGRDFLRRIFVEARQRPSAEELLTHHFAQLMY
B2: dual specificity mitogen-activated protein kinase kinase 5 (MEK5), endogenous (protein, UniProt Q13163 1-448)
chain: MLWLALGPFPAMENQVLVIRIKIPNSGAVDWTVHSGPQLLFRDVLDVIGQVLPEATTTAFEYEDEDGDRITVRSDEEMKAMLSYYYSTVMEQQVNGQLIEPLQIFPRACKPPGERNIHGLKVNTRAGPSQHSSPAVSDSLPSNSLKKSSAELKKILANGQMNEQDIRYRDTLGHGNGGTVYKAYHVPSGKILAVKVILLDITLELQKQIMSELEILYKCDSSYIIGFYGAFFVENRISICTEFMDGGSLDVYRKMPEHVLGRIAVAVVKGLTYLWSLKILHRDVKPSNMLVNTRGQVKLCDFGVSTQLVNSIAKTYVGTNAYMAPERISGEQYGIHSDVWSLGISFMELALGRFPYPQIQKNQGSLMPLQLLQCIVDEDSPVLPVGEFSEPFVHFITQCMRKQPKERPAPEELMGHPFIVQFNDGNAAVVSMWVCRALEERRSQQGPP
B3: MEKK2, endogenous (protein, UniProt Q9Y2U5 1-619)
chain: MDDQQALNSIMQDLAVLHKASRPALSLQETRKAKSSSPKKQNDVRVKFEHRGEKRILQFPRPVKLEDLRSKAKIAFGQSMDLHYTNNELVIPLTTQDDLDKAVELLDRSIHMKSLKILLVINGSTQATNLEPLPSLEDLDNTVFGAERKKRLSIIGPTSRDRSSPPPGYIPDELHQVARNGSFTSINSEGEFIPESMDQMLDPLSLSSPENSGSGSCPSLDSPLDGESYPKSRMPRAQSYPDNHQEFSDYDNPIFEKFGKGGTYPRRYHVSYHHQEYNDGRKTFPRARRTQGTSLRSPVSFSPTDHSLSTSSGSSIFTPEYDDSRIRRRGSDIDNPTLTVMDISPPSRSPRAPTNWRLGKLLGQGAFGRVYLCYDVDTGRELAVKQVQFDPDSPETSKEVNALECEIQLLKNLLHERIVQYYGCLRDPQEKTLSIFMEYMPGGSIKDQLKAYGALTENVTRKYTRQILEGVHYLHSNMIVHRDIKGANILRDSTGNVKLGDFGASKRLQTICLSGTGMKSVTGTPYWMSPEVISGEGYGRKADIWSVACTVVEMLTEKPPWAEFEAMAAIFKIATQPTNPKLPPHVSDYTRDFLKRIFVEAKLRPSADELLRHMFVHYH

Key:
Test in all cases: co-IP; FLAG-fusion baits overexpressed in HEK293; sonicated lysates (20 mM Tris-HCl pH 7.5, 20 mM NaCl, 0.5% IGEPAL CA-630, 1 mM DTT, 1 mM EDTA, 0.1 mM MG-132) rotated with anti-FLAG M2 magnetic beads for 3 hours, washed 3 times; endogenous partners detected by Western blot
[1] = molecular target: T1, FLAG-TRAF7 N520S, meningioma mutant of full-length human TRAF7 (human)
[2] = molecular target: T2, FLAG-TRAF7, full-length human TRAF7 (human)
[3] = molecular target: T1, FLAG-TRAF7 N520S, meningioma mutant of full-length human TRAF7 (human); remark: listed apart in the source
[4] = molecular target: FLAG-fusion protein of bacterial alkaline phosphatase (BAP) [phosphatase: P00634]
[5] = molecular target: T2, FLAG-TRAF7, full-length human TRAF7 (human); remark: listed apart in the source
[6] = molecular target: FLAG-COP1, human E3 ubiquitin ligase constitutive photomorphogenic 1 (human) (UniProt Q8NHY2)
[7] = molecular target: T3, FLAG-TRAF7(375-670), C-terminal WD40 domain (human)
[8] = molecular target: T4, FLAG-TRAF7(121-292) (human)

Molecule	binding [1]	binding [2]	binding [3]	binding [4]	binding [5]	binding [6]	binding [7]	binding [8]
extracellular signal-regulated kinase 5 (ERK5), endogenous (from UniProt Q13164 1-816)	no binding	no binding						
serine/threonine-protein kinase MARK2, endogenous (from UniProt Q7KZI7 1-788)	no binding	no binding						
B1			binds	no binding	binds	no binding	binds	
B2			binds	no binding	binds	no binding	binds	binds
B3			binds	no binding	binds	no binding		
